# Measured values from PMC8098127, “A new crystal form of GABARAPL2” (Acta Crystallographica. Section F, Structural Biology …, 2021).
# T1: NDP52 I133W LIR peptide (I133W (stands in the printed letters))
# T1 construct: LIR stretch of NDP52 (CALCOCO2) with I133W; Captured by its biotin on a streptavidin sensor chip; also called Super LIR; generic LIR peptide; source: synthetic peptide; bought: Mimotopes; not shown: LC-biotin, N-terminal, kept
# T1 peptide: {LC‑biotin}-ENEEDWLVVTTQGE
# B1: GABARAPL2 (natural protein)
# chain: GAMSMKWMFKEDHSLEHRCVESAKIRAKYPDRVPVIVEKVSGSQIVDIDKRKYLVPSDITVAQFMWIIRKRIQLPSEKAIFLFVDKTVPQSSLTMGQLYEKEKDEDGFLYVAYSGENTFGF
# notes: non-native N-terminal residues of the construct produced, left after TEV cleavage from the GST fusion; GABARAPL2 (GATE-16), human, full length with the C-terminal Phe117 kept ([…]); Expressed from pETM-30 as a GST fusion from synthetic DNA; also called GATE-16; GBRPL2; source: E. coli BL21 (DE3), purified (Glutathione Sepharose, on-column TEV cleavage, Superdex S75)
# Target: T1, NDP52 I133W LIR peptide
# Assay: SPR; BIAcore S200; biotinylated peptide captured on a streptavidin chip, GABARAPL2 injected in a threefold, ten-step dilution series; 10 mM HEPES, 150 mM NaCl, 3.4 mM EDTA, 0.05% Tween pH 7.4; steady-state fit
# Conditions: both partners purified
binder,measurement,value
B1,Kd,4.85 µM and 5.07 µM

# Where “and” joins values, the source holds several entries; their conditions need not be identical. Identical values can stand only once. Ends that are not written are not given here. * marks the point of attachment. LC‑biotin = O=C(CCCC[C@@H]1SC[C@@H]2NC(=O)N[C@@H]21)NCCCCCC(=O)*
